Reference: the supplement of paper PMC12217912
The list shows a part of the results. The full chains were built here from the parent and the listed change. Inactive controls read about 0.05.

B1: TEV protease; numbered along this chain (parent)
chain: MGESLFKGPRDYNPISSSICHLTNESDGHTTSLYGIGFGPFIITNKHLFRRNNGTLVVQSLHGVFKVKDTTTLQQHLVDGRDMIIIRMPKDFPPFPQKLKFREPQREERICLVTTNFQTKSMSSMVSDTSCTFPSGDGIFWKHWIQTKDGQCGSPLVSTRDGFIVGIHSASNFTNTNNYFTSVPKNFMELLTNQEAQQWVSGWRLNADSVLWGGHKVFMVKPEEPFQPVKEATQL

Variants of: B1
Assay: raw area under fraction-flipped curve 0-4 h after induction (AUC4h, not background-subtracted), DNA-recorder readout of cleavage of the substrate (dimensionless); higher = more cleavage of the substrate by the protease variant
Details: temperature: 34 °C; time window: 0-4 h after rhamnose induction
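Note: Bxb1 expression induced with 0.2% (w/v) L-rhamnose at OD600 near 0.5, cultures sampled hourly, flipped fraction per protease–substrate barcode pair counted by paired-end Illumina sequencing.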

| Variant | area with substrate ENDYFQS | area with substrate ENHYFQS | area with substrate ENMYFQS | area with substrate ENPYFQS | area with substrate ENQYFQS | area with substrate ENVYFQS | area with substrate ENEYFQS | area with substrate ENFYFQS | area with substrate ENSYFQS | area with substrate ENIYFQS |
| --- | --- | --- | --- | --- | --- | --- | --- | --- | --- | --- |
| G166L | 0.0532 | 0.0505 | 0.0674 | 0.0449 | 0.0547 | 0.0531 |  |  |  |  |
| F180E | 0.0477 |  | 0.0587 |  |  |  | 0.056 | 0.0491 | 0.058 |  |
| N186P | 0.0583 | 0.0699 |  |  |  |  | 0.0347 |  | 0.0579 | 0.0602 |
| L190R | 0.0672 | 0.0582 | 0.0596 |  | 0.0626 | 0.105 | 0.0641 | 0.0709 | 0.0626 |  |
| V200M | 0.0498 | 0.0675 | 0.0644 | 0.0485 |  | 0.066 | 0.0763 | 0.0776 |  | 0.0804 |
| A207P | 0.048 | 0.0378 | 0.0826 |  |  |  | 0.0619 | 0.0666 | 0.0537 | 0.0911 |
| K221V | 0.0533 | 0.0641 | 0.0652 | 0.0649 | 0.0605 | 0.0696 | 0.0633 | 0.073 | 0.0593 | 0.0955 |
| F6M |  |  |  |  | 0.0601 |  | 0.0631 | 0.0554 | 0.063 |  |
| F6Y |  |  |  |  |  |  | 0.0691 |  |  |  |
| Q74R |  | 0.0599 |  | 0.0437 |  | 0.0741 | 0.0661 |  | 0.0634 |  |
| D91Q |  |  |  |  |  | 0.063 | 0.059 |  |  | 0.0967 |
| F180W |  | 0.0537 | 0.068 | 0.0612 | 0.0497 | 0.0669 | 0.0564 |  | 0.0695 |  |
| L211P |  |  |  |  | 0.0567 |  | 0.059 |  | 0.0622 |  |
| D149V |  |  | 0.0752 |  |  |  |  | 0.0772 | 0.08 |  |
| L211H |  | 0.0546 |  |  | 0.0367 | 0.0747 |  | 0.0884 | 0.0538 |  |
| T71P |  | 0.0578 |  |  | 0.0483 |  |  |  | 0.0538 |  |

Same assay, conditions: temperature: 34 °C; time window: 0-4 h after rhamnose induction

| Variant | area with substrate ENNYFQS | area with substrate ENTYFQS | area with substrate ENYYFQS | area with substrate ENGYFQS | area with substrate ENKYFQS | area with substrate ENWYFQS | area with substrate ENRYFQS |
| --- | --- | --- | --- | --- | --- | --- | --- |
| N186P | 0.0661 | 0.0606 | 0.0539 |  |  |  |  |
| L190R | 0.0607 | 0.0611 | 0.0561 | 0.0924 | 0.0539 |  |  |
| V200M | 0.056 |  |  | 0.0925 |  | 0.0495 |  |
| A207P | 0.0638 |  | 0.0488 |  |  |  |  |
| K221V | 0.058 | 0.0463 | 0.0652 |  |  |  |  |
| F6M |  | 0.0643 | 0.0461 | 0.0653 |  |  |  |
| F6Y |  |  |  | 0.0624 |  | 0.0652 |  |
| Q74R | 0.0533 | 0.0537 | 0.0613 |  |  |  | 0.0501 |
| D91Q |  |  |  | 0.0516 | 0.0548 | 0.0509 | 0.0793 |
| F180W | 0.0667 | 0.0641 | 0.0636 | 0.0596 | 0.0192 |  |  |
| L211P |  |  |  | 0.0673 | 0.0542 |  |  |
| D149V | 0.0727 | 0.0483 |  |  |  |  | 0.0443 |
| L211H | 0.06 |  |  |  | 0.0621 |  |  |
| T71P | 0.04 |  |  | 0.0604 |  | 0.003 |  |
| M219Y | 0.0574 |  |  | 0.0719 |  |  | 0.0555 |
